Sequences and labels used below:
B1: Caulobacter ParB omega fusion; a variant is named by its letters at X, in order, B8GW30 (parent)
chain: MESVVVGEPGMSEGRRGLGRGLSALLGEVDAAPAQAPGEQLGGSREAPIEILQRNPDQPRRTFREEDLEDLSNSIREKGVLQPILVRPSPDTAGEYQIVAGERAWRAAQRAGLKTVPIMVRELDDLAVLEIGIIENVQRADLNVLEEALSYKVLMEKFERTQENIAQTIGKSXSHVANXMRLLXLPDEVQSYLVSGELTAXHARAIAAAADPVALAKQIIEGGLSVRETEALARKAPNLSAGKSKGGRPPRVKDTDTQALESDLSSVLGLDVSIDHRGSTGTLTITYATLEQLDDLCNRLTRGI

In all, about 81,000 sequences were measured (“one-hybrid fitness for binding parS DNA”: median about -0.17, highest 2% from about 0.51 on). Some of the results follow.

The variants in the experiment derive from B1. The experiment can be described thus: one-hybrid fitness for binding parS DNA (scaled: cognate 1, non-cognate 0); higher = stronger binding. As to conditions: with parS DNA site. In outline: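 Fitness is the rescaled log change in variant-to-wild-type read ratio, measured by Illumina sequencing of plasmids before and after bacterial one-hybrid selection. The scale puts cognate at 1 and non-cognate at 0. Selection of Caulobacter ParB libraries, four specificity codons randomised, took place in E. coli USO with a HIS3 reporter, site 19 bp from the promoter, over 48 hours at 37°C on M9-minus-histidine with 0.1 mM IPTG and 5 mM 3-AT.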
SMHF: the “one-hybrid fitness for binding parS DNA” value is not above 0.2.
As for HAQV, the figure is not above 0.2.
With SVGI the figure was not above 0.2; with YRKC, 0.388.
With FIMT the figure was not above 0.2; with LWQL, not above 0.2.
Take PVMC: the “one-hybrid fitness for binding parS DNA” value was not above 0.2.
Regarding DPTT, the “one-hybrid fitness for binding parS DNA” value is not above 0.2.
As for KHRN, the figure is not above 0.2.
With ILSP the figure was not above 0.2; with GEAK, not above 0.2.
With ASRK the figure was not above 0.2; with PMGP, not above 0.2.
For GHWS, the “one-hybrid fitness for binding parS DNA” value is not above 0.2.
As for VANI, the figure is not above 0.2.
Take HRLL: the “one-hybrid fitness for binding parS DNA” value was not above 0.2.
With EHAR the figure was not above 0.2; with HDGM, not above 0.2.
With QYDC the figure was not above 0.2; with LVTF, not above 0.2.
With QSHR the figure was not above 0.2; with AHEF, not above 0.2.
SLSH: the “one-hybrid fitness for binding parS DNA” value is not above 0.2.
As for HCNS, the figure is not above 0.2; as for THEL, not above 0.2.
As for HNSR, the figure is not above 0.2; as for RDMC, not above 0.2.
Regarding GVPN, the “one-hybrid fitness for binding parS DNA” value is not above 0.2.
As for KVGC, the figure is not above 0.2.
With QSFS the figure was not above 0.2; with QQNI, not above 0.2.
With PFAS the figure was not above 0.2.
In the case of RCSN, the “one-hybrid fitness for binding parS DNA” value is 0.44.
As for QICG, the figure is not above 0.2.
As for PLLQ, the figure is not above 0.2.
As for APER, the figure is not above 0.2.
Turning to DFPT, the “one-hybrid fitness for binding parS DNA” value was not above 0.2.
With YCHY the figure was not above 0.2; with LETY, not above 0.2.
In the case of KSLK, the “one-hybrid fitness for binding parS DNA” value was not above 0.2.
With RCHD the figure was not above 0.2; with VCCS, not above 0.2; with IGVS, not above 0.2.
As for LFGS, the figure is not above 0.2; as for RERG, 0.388.
Take VNDE: the “one-hybrid fitness for binding parS DNA” value was not above 0.2.
As for LYMS, the figure is not above 0.2.
As for LQYC, the figure is not above 0.2.
For QAFN, the “one-hybrid fitness for binding parS DNA” value is not above 0.2.
With ASGC the figure was not above 0.2; with FTFG, not above 0.2.
As for SWNG, the figure is not above 0.2.
As for AELL, the figure is not above 0.2; as for SAPG, not above 0.2; as for PHML, not above 0.2.
Take MREW: the “one-hybrid fitness for binding parS DNA” value was not above 0.2.
As for IDNC, the figure is not above 0.2; as for HDFR, not above 0.2.
With LTVD the figure was not above 0.2.
As for LVDW, the figure is not above 0.2.
As for NHSK, the “one-hybrid fitness for binding parS DNA” value is not above 0.2.
As for PCHG, the figure is not above 0.2.
With RIDE, the “one-hybrid fitness for binding parS DNA” value was not above 0.2.
With YTTL, the “one-hybrid fitness for binding parS DNA” value was not above 0.2.
Take GLNL: the “one-hybrid fitness for binding parS DNA” value is not above 0.2.
As for WRTY, the figure is not above 0.2; as for RLWQ, not above 0.2; as for HMTL, not above 0.2.
As for DQPL, the figure is not above 0.2; as for EPPL, not above 0.2; as for AMYH, not above 0.2.
On to WGLA, for which the “one-hybrid fitness for binding parS DNA” value was not above 0.2.
With SNVE the figure was not above 0.2; with HFNI, not above 0.2.
As for YIDK, the figure is 0.28; as for QHCC, not above 0.2.
Take HYIT: the “one-hybrid fitness for binding parS DNA” value is not above 0.2.
In the case of CLGT, the “one-hybrid fitness for binding parS DNA” value was not above 0.2.
With DLRS the figure was not above 0.2; with RKFE, not above 0.2; with SVIE, not above 0.2.
As for KGNS, the figure is not above 0.2; as for SIGF, not above 0.2; as for RDTL, not above 0.2.
As for IEAC, the figure is not above 0.2.
As to WRVL, the “one-hybrid fitness for binding parS DNA” value is not above 0.2.
On to GEGG, for which the “one-hybrid fitness for binding parS DNA” value was not above 0.2.
For PEIP, the “one-hybrid fitness for binding parS DNA” value is not above 0.2.
As for VGAV, the figure is not above 0.2; as for HTNT, not above 0.2; as for YSKG, not above 0.2.
As for AWCT, the figure is not above 0.2; as for TATS, not above 0.2.
With TPAD the figure was not above 0.2; with MQTD, not above 0.2; with CPLV, not above 0.2.
For the variant RLIM, the “one-hybrid fitness for binding parS DNA” value was found to be 0.268.
Regarding WVTD, the “one-hybrid fitness for binding parS DNA” value was not above 0.2.
As to PGIY, the “one-hybrid fitness for binding parS DNA” value was not above 0.2.
As for TWDL, the figure is not above 0.2.
As for RMNR, the figure is not above 0.2; as for SNAR, not above 0.2.
As for MDCS, the figure is not above 0.2; as for LFVS, not above 0.2.
QDHY: the “one-hybrid fitness for binding parS DNA” value is not above 0.2.
With KRTY the figure was not above 0.2; with DCTG, not above 0.2; with HVSV, not above 0.2.
As for VPVL, the “one-hybrid fitness for binding parS DNA” value is not above 0.2.
Consider MCSC, for which the “one-hybrid fitness for binding parS DNA” value was not above 0.2.
As for TPET, the figure is not above 0.2; as for VWQS, not above 0.2; as for SSVE, not above 0.2.
As for LLTY, the figure is not above 0.2; as for VSPF, not above 0.2.
With YKIK the figure was not above 0.2.
On to NGIW, for which the “one-hybrid fitness for binding parS DNA” value was not above 0.2.
As for RLLL, the figure is not above 0.2; as for EIGC, not above 0.2.
With SANC the figure was not above 0.2.
With FWCS the figure was not above 0.2; with RQKA, 0.701; with GGIT, not above 0.2.
Take EDAY: the “one-hybrid fitness for binding parS DNA” value is not above 0.2.
With WPYE the figure was not above 0.2; with PEPG, not above 0.2; with HMRI, not above 0.2.
As for TIAS, the figure is not above 0.2.
With ICVG the figure was not above 0.2; with HYPY, not above 0.2.
As for GIIS, the “one-hybrid fitness for binding parS DNA” value was not above 0.2.
In the case of YTEC, the “one-hybrid fitness for binding parS DNA” value is not above 0.2.
For the variant QDRA, the “one-hybrid fitness for binding parS DNA” value was not above 0.2.
With TAPT the figure was not above 0.2; with GSAD, not above 0.2; with TSER, not above 0.2.
With TLHM the figure was not above 0.2.
As to CTNW, the “one-hybrid fitness for binding parS DNA” value is not above 0.2.
Take FRTF: the “one-hybrid fitness for binding parS DNA” value is not above 0.2.
With SGDG, the “one-hybrid fitness for binding parS DNA” value is not above 0.2.
With KFVM the figure was not above 0.2; with LIPR, not above 0.2; with YASD, not above 0.2.
With SLRV the figure was not above 0.2.
With CTIG the figure was not above 0.2; with RHHR, not above 0.2.
Consider CNDS, for which the “one-hybrid fitness for binding parS DNA” value was not above 0.2.
For the variant CRVC, the “one-hybrid fitness for binding parS DNA” value is not above 0.2.
With FTSV the figure was not above 0.2; with VANV, not above 0.2.
As for GPLV, the figure is not above 0.2; as for VSMT, not above 0.2.
Regarding DIMS, the “one-hybrid fitness for binding parS DNA” value was not above 0.2.

Values taken from a collection of fitness landscapes (doi:10.1016/j.celrep.2020.107928).
